How the values were obtained:
His-SRPK1 WT = biological target: T1, His-SRPK1 WT (human, UniProt Q96SB4 1-655); experiment: pull-down; His-tagged proteins incubated with bead-bound GST fusion proteins; beads washed at least five times with PBS; Western blot; settings: both partners purified
T1 construct: Human SRPK1 FL (full length) cDNA cloned with a His tag; also called SRPK1-FL; source: E. coli (BL21 DE3)

[1] = biological target: T2, His-SRPK1(K109A), kinase-dead mutant (human, UniProt Q96SB4 1-655, K109A); experiment: as above; settings: both partners purified
T2 construct: Human SRPK1 with the kinase-dead mutation K109A, His tag; source: E. coli (BL21 DE3)

Row | binding result (His-SRPK1 WT) | binding result [1] | Binder
1 | binds | binds | GST-GSK3β (K85A), kinase-dead mutant (natural protein, Human GSK3β with the kinase-dead mutation K85A, GST tag) not shown
2 | binds | binds | GST-GSK3β (S9A/K85A), double mutant (natural protein, Human GSK3β with the mutations S9A and K85A, GST tag) not shown
3 | binds | binds | GST-GSK3β (S9A), phosphorylation-defective mutant (natural protein, Human GSK3β with the phosphorylation-defective mutation S9A, GST tag) not shown
